The values below come from publication PMC4336329 (PLoS ONE, 2015).

The whole screen tested about 310,000 compounds, of which about 2,200 (0.71%) showed an effect of 50% or more. Effects have a minus sign here. Some of the results follow.

The target of this experiment is human ether-à-go-go-related gene (hERG) potassium channel (human, UniProt Q12809). Briefly: primary screen, population patch clamp on CHO cells stably expressing hERG.
Chain of human ether-à-go-go-related gene (hERG) potassium channel (Q12809 whole entry, looked up): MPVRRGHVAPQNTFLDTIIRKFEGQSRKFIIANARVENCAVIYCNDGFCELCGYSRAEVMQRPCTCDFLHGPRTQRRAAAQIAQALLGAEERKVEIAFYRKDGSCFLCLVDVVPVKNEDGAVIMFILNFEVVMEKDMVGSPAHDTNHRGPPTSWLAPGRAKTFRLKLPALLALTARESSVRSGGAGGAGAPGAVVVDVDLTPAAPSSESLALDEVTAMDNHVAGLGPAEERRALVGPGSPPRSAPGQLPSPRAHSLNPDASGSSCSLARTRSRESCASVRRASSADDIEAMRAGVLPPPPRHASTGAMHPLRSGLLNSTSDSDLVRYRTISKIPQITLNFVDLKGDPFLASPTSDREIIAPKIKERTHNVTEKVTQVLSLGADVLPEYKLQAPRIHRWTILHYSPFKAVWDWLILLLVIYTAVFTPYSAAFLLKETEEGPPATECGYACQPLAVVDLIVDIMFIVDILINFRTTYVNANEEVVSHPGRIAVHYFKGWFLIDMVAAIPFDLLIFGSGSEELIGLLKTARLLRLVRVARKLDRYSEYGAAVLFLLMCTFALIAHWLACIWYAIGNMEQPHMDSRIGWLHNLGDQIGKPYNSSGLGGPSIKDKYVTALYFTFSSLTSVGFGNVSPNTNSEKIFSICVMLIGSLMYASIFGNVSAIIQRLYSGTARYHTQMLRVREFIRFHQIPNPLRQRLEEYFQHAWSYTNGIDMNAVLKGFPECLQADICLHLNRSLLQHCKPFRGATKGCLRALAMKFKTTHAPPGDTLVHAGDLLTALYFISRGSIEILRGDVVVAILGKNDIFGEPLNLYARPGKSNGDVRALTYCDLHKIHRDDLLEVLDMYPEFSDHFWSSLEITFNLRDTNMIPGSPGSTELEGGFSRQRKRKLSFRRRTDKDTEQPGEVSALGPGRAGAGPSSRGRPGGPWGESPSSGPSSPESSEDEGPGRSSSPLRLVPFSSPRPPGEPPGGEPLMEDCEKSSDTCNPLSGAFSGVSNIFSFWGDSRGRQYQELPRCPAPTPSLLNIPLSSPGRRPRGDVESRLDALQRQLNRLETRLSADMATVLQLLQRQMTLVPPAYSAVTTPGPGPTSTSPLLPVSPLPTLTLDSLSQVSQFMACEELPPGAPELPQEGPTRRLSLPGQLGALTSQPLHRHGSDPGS
In the case of `CN(C)CCN(CC1CCCN(Cc2ccccc2F)C1)C(=O)Cc1ccc(F)c(F)c1` (centres unmarked), the “hERG current change (%, negative = inhibition) at 1uM” value is reported as 4.74%.

On to `COc1ccc(N(CC(=O)N2CCc3ccccc3C2)S(C)(=O)=O)cc1OC`, for which the “hERG current change (%, negative = inhibition) at 1uM” value was -4.06%.

Regarding `CC(=O)NCCC(=O)Nc1cc(S(=O)(=O)N2CCCCC2)ccc1Oc1ccccc1`, the “hERG current change (%, negative = inhibition) at 1uM” value was -28.9%.

For `O=S(=O)(N/N=C/c1ccc(N2CCOCC2)cc1)c1ccc(Br)cc1`, the “hERG current change (%, negative = inhibition) at 1uM” value was 11.6%.

For the compound `Cc1ccc(SC[C@H](C)CN2CC[C@H](C(C)(C)C)CCC2=O)cc1`, the “hERG current change (%, negative = inhibition) at 1uM” value was determined as 0.221%.

On to `COc1ccc(CC(=O)Nc2ccc(C(=O)NC(C)(C)C)cc2)cc1OC`, for which the “hERG current change (%, negative = inhibition) at 1uM” value is recorded as 2.58%.

On to `Cc1cc(-n2c(=O)c(C#N)cc3c(=O)n4ccccc4nc32)no1`, for which the “hERG current change (%, negative = inhibition) at 1uM” value stood at 12.5%.

Turning to `Cc1c(-c2ccc(Cl)cc2)[n+](=O)c(-c2ccccc2)cn1[O-]`, the “hERG current change (%, negative = inhibition) at 1uM” value turned out to be 10.3%.

As for `CCCCOC(=O)C1=C(C)NC(=O)NC1c1cccc([N+](=O)[O-])c1` (centres unmarked), the “hERG current change (%, negative = inhibition) at 1uM” value is listed as 6.45%.

For `O=C1/C(=C/c2ccco2)SC(=S)N1CCC(=O)N1CCCCC1CCO` (centres unmarked), the “hERG current change (%, negative = inhibition) at 1uM” value worked out at 13%.

In the case of `Nc1c(N(CCC2=CCCCC2)C(=O)c2ccco2)c(=O)[nH]c(=O)n1Cc1ccccc1`, the “hERG current change (%, negative = inhibition) at 1uM” value worked out at 26%.

On to `COc1cccc(-c2cc(C(F)(F)F)nc(-n3cncn3)n2)c1`, for which the “hERG current change (%, negative = inhibition) at 1uM” value is reported as -19.8%.

Take `COCCCNC(=O)CCN1N=C(c2ccccc2)CCC1=O`: the “hERG current change (%, negative = inhibition) at 1uM” value is 13.8%.

Take `COc1ccc(NC(=O)Cc2ccsc2)c(OC)c1`: the “hERG current change (%, negative = inhibition) at 1uM” value is reported as 4.97%.

For `O=C(NCCCCc1ccccc1)C1CC(c2cc(C(F)(F)F)cc(C(F)(F)F)c2)=NO1` (centres unmarked), the “hERG current change (%, negative = inhibition) at 1uM” value came to 14.1%.

In the case of `O=C(NCc1ccco1)c1cc([N+](=O)[O-])cc([N+](=O)[O-])c1`, the “hERG current change (%, negative = inhibition) at 1uM” value is reported as -0.528%.

Consider `COc1ccccc1OCC(=O)Nc1oc(-c2ccccc2)c(-c2ccccc2)c1C#N`, for which the “hERG current change (%, negative = inhibition) at 1uM” value is given as 6.3%.

On to `O=C(NCc1ccccc1F)C1CCCN(c2cnccn2)C1` (centres unmarked), for which the “hERG current change (%, negative = inhibition) at 1uM” value is on record as 10.5%.

Turning to `NC(=O)c1ccc(C2SCC(=O)N2Cc2ccccc2)cc1` (centres unmarked), the “hERG current change (%, negative = inhibition) at 1uM” value is on record as 8.82%.

As for `O=[N+]([O-])c1ccc2[nH]c(O)c(N=NC3CCS(=O)(=O)C3)c2c1` (centres unmarked), the “hERG current change (%, negative = inhibition) at 1uM” value is on record as 14.3%.

With `CC(NC(=O)c1ccccc1)c1nnc(SCc2nc3ccccc3c(=O)[nH]2)n1C` (centres unmarked), the “hERG current change (%, negative = inhibition) at 1uM” value is 17%.

For `CC(=O)c1ccc(C(=O)Nc2ccc3c(c2)C(=O)NC3=O)cc1`, the “hERG current change (%, negative = inhibition) at 1uM” value is on record as 12.4%.

For `CC(C)c1onc(C(=O)N2CCCCC2)c1[N+](=O)[O-]`, the “hERG current change (%, negative = inhibition) at 1uM” value is 6.87%.

In the case of `COc1ccc(NS(=O)(=O)c2ccc(O)c(C(=O)OCC(=O)Nc3ccc4c(c3)OCCO4)c2)cc1`, the “hERG current change (%, negative = inhibition) at 1uM” value is reported as 11.6%.

With `CCCCSc1nc(C)nc2c1c(=O)n(C)c(=O)n2C`, the “hERG current change (%, negative = inhibition) at 1uM” value is on record as 11.2%.

Regarding `CN(c1ccccc1)S(=O)(=O)c1ccc(Cl)c(C(=O)Nc2ccc(N3CCOCC3)cc2)c1`, the “hERG current change (%, negative = inhibition) at 1uM” value came to 11.5%.

As to `CNC(=O)c1sccc1Oc1ccc(F)cc1[N+](=O)[O-]`, the “hERG current change (%, negative = inhibition) at 1uM” value is on record as 16.9%.

Take `COc1ccc(-c2ccoc2)cc1[C@H]1[C@H]2C=CC[C@@H](C)[C@@H]2C(=O)N1Cc1ccccc1`: the “hERG current change (%, negative = inhibition) at 1uM” value came to 9.05%.

For `O=C(NC1CCCCC1)N(Cc1cc2cc3c(cc2[nH]c1=O)OCCO3)C1CCCCC1`, the “hERG current change (%, negative = inhibition) at 1uM” value was -4.63%.

Turning to `CCCNC(=O)COC(=O)/C(C#N)=C/c1cc(C)n(CCC)c1C`, the “hERG current change (%, negative = inhibition) at 1uM” value is reported as 9.82%.

As for `CN(C)S(=O)(=O)c1cccc(NC(=O)COC(=O)c2cc(=O)[nH]c(=O)[nH]2)c1`, the “hERG current change (%, negative = inhibition) at 1uM” value was determined as 9.41%.

`CCCCCn1nc(C(=O)OCC(=O)c2c(N)n(C)c(=O)n(C)c2=O)c2ccccc2c1=O`: the “hERG current change (%, negative = inhibition) at 1uM” value is 5.72%.

Turning to `COc1cc(OC)c(C(=O)N(CCc2ccccc2)Cc2ccccc2)cc1OC`, the “hERG current change (%, negative = inhibition) at 1uM” value was -0.9%.

As to `COc1ccc(OC)c(S(=O)(=O)N/N=C(/C)c2ccc3c(c2)OCO3)c1`, the “hERG current change (%, negative = inhibition) at 1uM” value is listed as -2.83%.

As for `C/C=C1/CN2C3CC1C(CO)(C(=O)OC)C2Cc1c3n(C)c2ccccc12` (centres unmarked), the “hERG current change (%, negative = inhibition) at 1uM” value amounted to 10.1%.

As to `O=C(/C=C/c1ccc2c(c1)OCO2)c1ccc(F)cc1`, the “hERG current change (%, negative = inhibition) at 1uM” value came out at 14.7%.

In the case of `O=C(CSc1nnc(-c2ccccc2)n1-c1ccccc1)c1cccs1`, the “hERG current change (%, negative = inhibition) at 1uM” value was found to be 6.55%.

On to `COC(=O)CSC1=C(C#N)C(c2ccc(F)cc2)CC(=O)N1` (centres unmarked), for which the “hERG current change (%, negative = inhibition) at 1uM” value amounted to 11.9%.

As for `COc1cc(C)nc(N2CCC(C(=O)NCC3CCCO3)CC2)n1` (centres unmarked), the “hERG current change (%, negative = inhibition) at 1uM” value is recorded as 4.28%.

`c1ccc2nc3c(cc2c1)CCCCC3`: the “hERG current change (%, negative = inhibition) at 1uM” value is on record as 6.14%.

Regarding `Cc1ccc(CCC(=O)Nc2ccc(C)c(C)c2)o1`, the “hERG current change (%, negative = inhibition) at 1uM” value was -10.3%.

As for `COc1ccc(-n2nc(C(=O)NCC(=O)NCCN(C)C)c3ccccc3c2=O)cc1`, the “hERG current change (%, negative = inhibition) at 1uM” value came out at 13%.

For `CC1(C)Cc2c(cnn2-c2ccc(F)cc2)C(NC(=O)CCC(F)(F)F)C1` (centres unmarked), the “hERG current change (%, negative = inhibition) at 1uM” value is given as -6.85%.

Take `O=C(NC1CC1)c1cccc(Oc2ccccc2)c1`: the “hERG current change (%, negative = inhibition) at 1uM” value amounted to 9.68%.
